Patent US20090291088A1, “THERAPEUTIC COMBINATIONS OF ANTI-IGF-1R ANTIBODIES AND OTHER COMPOUNDS” (Biogen Idec MA Inc., priority 2008, published 2009)

Legend:
hIGF-1R-Fc mutants = experiment: Epitope mapping: antibody binding to IGF-1R mutant proteins; design: species or system human
Description: Mouse and human IGF-1R share 95% primary amino acid sequence identity. Human IGF-1R and human INSR share 57% identity (73% similarity). […] Twenty of these residues were targeted for mutation because the homologous positions within the INSR ectodomain were exposed to solvent based on the recent INSR crystal structure (pdb code 2DTG, McKern 2006). Accessible surface areas were calculated using StrucTools (http://molbio.info.nih.gov/structbio/basic.html) with a 1.4 Å probe radius.

[1] = target: T1, human IGF-1R(1-902)-His10 (Homo sapiens, UniProt P08069); experiment: SPR, receptor ectodomain injected over immobilized antibodies: hIGF-1R-His10; format: binding; details: full-length fully human antibodies; even at the lowest concentration
T1 construct: human IGF-1R(1-902)-His10 (hIGF-1R-His10 (R&D systems)); purchased R&D systems 305-GR-050
Description: SPR analyses were performed using a Biacore3000. The instrument was set to 25° C. and assays performed with running buffer HBS-EP pH 7.2 purchased from Biacore (Biacore, Cat. No. BR-1001-88). The fully human antibodies, M13-C06, M14-C03, and M14-G11 were immobilized to ˜10,000 RU on Biacore CM5 Research Grade Sensor Chip surfaces using the standard NHS/EDC-amine reactive chemistry according to protocols supplied by Biacore. For immobilization, the antibodies were diluted to 40 μg/mL in a 10 mM Acetate pH 4.0 buffer. To investigate the relative kinetics of association and dissociation of the full-length ectodomains of human IGF-1R(1-902)-His10 (hIGF-1R-His10 (R&D systems)) and human INSR(28-956)-His10 (INSR (R&D systems)) to each of the human antibodies, increasing concentrations of hIGF-1R-His10 or INSR were injected over the sensorchip surfaces. The hIGF-1R-His10 concentration series ranged from 1.0 nM to 250 nM while the INSR concentrations ranged from 1.0 nM to 2 μM. All antibody surfaces were reliably regenerated with 100 mM Glycine, pH 2.0. […] Flow rates were 20 μl/min. (“His10” denotes a 10-residue histidine tag on the C-terminus of the constructs.)

hIGF-1R-Fc = target: T2, hIGF-1R-Fc (Homo sapiens, UniProt P08069); experiment: Antibody cross-blocking ELISA with biotinylated M13-C06 or M14-G11; format: binding
T2 construct: (3) human IGF-1R(1-903)-Fc (hIGF-1R-Fc, Biogen Idec); host or cells: CHO
Description: The ability of various antibodies to block M13-C06 or M14-G11 was determined using biotinylated version of both antibodies and hIGF-1R-Fc. Briefly, 50 μL of 2 μg/mL hIGF-1R-Fc in 1×PBS were coated per well of a 96-well clear MaxiSorp plate (Nunc) for 2 hours at room temperature (RT, no shaking). Plates were washed with 1×PBS and blocked overnight at 2-8° C. using a PBS/1% BSA solution. Plates were washed and incubated with a 100 μL mixture of biotinylated M13-C06 or biotinylated M14-G11 (80 ng/mL) and inhibitor antibody for 1 hour at RT. Inhibitor antibodies were serially diluted (5-fold dilutions) from 40 μg/mL to 3 ng/mL. M13-C06 and M14-G11 were biotinylated using EZ-Link Sulfo-NHS-LC-Biotin according to protocol provided by the manufacturer (Pierce Cat. No. 21335). A control was also performed by serial dilution of a non-IGF-1R specific IgG4 isotype control antibody with biotinylated M13-C06 or biotinylated M14-G11. Plates were washed and shaken for 1 hour at RT with 100 μL/well streptavidin-HRP (1:4000 dilution into blocking buffer, Southern Biotech Cat. No. 7100-05). Plates were washed and 100 μL/well SureBlue Reserve TMB Microwell Peroxidase Substrate (KPL, Cat. No. 53-00-01) was added to the wells. Detection of the presence of biotinylated M13-C06 or M14-G11 was performed by reading the absorbance at 650 nm every 5 minutes using a Wallac 1420-041 Multilabel Counter plate reader.

cynomolgus IGF-1R = experiment: Binding to cynomolgus IGF-1R expressed in CHO cells (flow cytometry, confocal); design: species or system cynomolgus monkey
Description: The ability of anti-human IGF-1R antibodies to recognize the IGF-1R from non-human primates was tested. First Rhesus and cynomolgus monkey IGF-1R was cloned and expressed in CHO cells. The binding of all antibodies was determined by flow cytometry and confirmed by confocal microscopy.

[2] = system: IGF-1R expressed on the cynomolgus fibroblast cell line; experiment: FACS binding to cynomolgus fibroblast cell line; design: species or system cynomolgus macaque; details: biotinylated antibody
Description: The fibroblast cell line was generated from a skin biopsy. […] After washing the cells, streptavidin-PE was added and incubated for additional 30 minutes at 4° C. in the dark. The cells were then washed and 200 ul cold PBS was added followed by fixation with 1% formaldehyde and gentle vortexing. Antibody binding was assessed by FACS analysis.

[3] = system: lung, pancreas, and colon tumor cell lines; experiment: In vitro growth of lung, pancreas and colon tumor cell lines in medium with 10% FCS or FBS; format: cell-based, human; details: 10% Serum in Media

effect of IGF-1R mutation on antibody binding (hIGF-1R-Fc mutants; residue 248 and 254 (FIG. 37)): moderate negative affect
effect of IGF-1R mutation on antibody binding (hIGF-1R-Fc mutants; residue 254): moderate negative affect
effect of IGF-1R mutation on antibody binding (hIGF-1R-Fc mutants; residues 28, 227, 237, 285, 286, 301, 327 and 412): no detectable affect
effect of IGF-1R mutation on antibody binding (hIGF-1R-Fc mutants; residues 248 and 250): strong negative affect
effect of IGF-1R mutation on antibody binding (hIGF-1R-Fc mutants; residues 257, 259, 260, 263 and 265): weak negative affect
binding of hIGF-1R-His10 to immobilized antibody surface [1]: demonstrated binding
B1: M14-G11: anti-IGF1-R antibody, competitive blocker of IGF-1 and IGF-2 (antibody, V domains shown)
VH: EVQLLESGGGLVQPGGSLRLSCAASGFTFSNYPMYWVRQAPGKGLEWVSRISSSGGRTVYADSVKGRFTISRDNSKNTLYLQMNSLRAEDTAVYYCARDRWSRSAAEYGLGGYWGQGTLVTVSS
VL: DIQMTQSPDSLAVSLGERATINCKSSQSVLYSSNNKNYLAWYQQKPGQPPKLLIYLASTRESGVPDRFSGSGSGTDFTLTISSLQAEDVAVYYCQQYYSTWTFGQGTKVEIK
modifications: Antibody variable heavy chain sequence; Antibody variable light chain sequence
M14-G11 cross-blocking (hIGF-1R-Fc): +++++ (+++++ = antibody binding competition relative to itself (90-100%))

B2: M14-G11.G4.P: full-length human IgG4.P version of Fab M14-G11 (antibody, V domains shown)
VH: B1 VH
VL: B1 VL
binding to cynomolgus IGF-1R (cynomolgus IGF-1R): specific binding activity

B3: M13-C06.G4.P.agly: full-length hinge-modified aglycosylated human gamma 4, kappa antibody with the binding domain of Fab M13-C06 (antibody)
heavy: EVQLLESGGGLVQPGGSLRLSCAASGFTFSIYRMQWVRQAPGKGLEWVSGISPSGGTTWYADSVKGRFTISRDNSKNTLYLQMNSLRAEDTAVYYCARWSGGSGYAFDIWGQGTMVTVSSASTKGPSVFPLAPCSRSTSESTAALGCLVKDYFPEPVTVSWNSGALTSGVHTFPAVLQSSGLYSLSSVVTVPSSSLGTKTYTCNVDHKPSNTKVDKRV[human IgG4 Fc with S228P T299A (EU numbers) not written out]
light: DIQMTQSPLSLSASVGDRVTITCQASRDIRNYLNWYQQKPGKAPKLLIYDASSLQTGVPSRFGGSGSGTDFSFTIGSLQPEDIATYYCQQFDSLPHTFGQGTKLEIKRTVAAPSVFIFPPSDEQLKSGTASVVCLLNNFYPREAKVQWKVDNALQSGNSQESVTEQDSKDSTYSLSSTLTLSKADYEKHKVYACEVTHQGLSSPVTKSFNRGEC
binding to cynomolgus fibroblast cell line [2]: concentration dependent manner
percent growth inhibition ([3]; A549 (Lung), 2 nM antibody): 12%
percent growth inhibition ([3]; A549 (Lung), 20 nM antibody): 22%
percent growth inhibition ([3]; A549 (Lung), 200 nM antibody): 41%
percent growth inhibition ([3]; BXPC3 (Pancreas), 0.2 nM antibody): 6%
percent growth inhibition ([3]; BXPC3 (Pancreas), 2 nM antibody): 3%
percent growth inhibition ([3]; BXPC3 (Pancreas), 20 nM antibody): 9%
percent growth inhibition ([3]; BXPC3 (Pancreas), 200 nM antibody): 26%
percent growth inhibition ([3]; Calu-6 (Lung), 0.2 nM antibody): 0%
percent growth inhibition ([3]; Calu-6 (Lung), 2 nM antibody): 0%
percent growth inhibition ([3]; Calu-6 (Lung), 20 nM antibody): 0%
percent growth inhibition ([3]; Calu-6 (Lung), 200 nM antibody): 9%
percent growth inhibition ([3]; Capan-1 (Pancreas), 0.2 nM antibody): 0%
percent growth inhibition ([3]; Capan-1 (Pancreas), 2 nM antibody): 0%
percent growth inhibition ([3]; Capan-1 (Pancreas), 20 nM antibody): 0%
percent growth inhibition ([3]; Capan-1 (Pancreas), 200 nM antibody): 0%
percent growth inhibition ([3]; Capan-2 (Pancreas), 0.2 nM antibody): 41%
percent growth inhibition ([3]; Capan-2 (Pancreas), 2 nM antibody): 45%
percent growth inhibition ([3]; Capan-2 (Pancreas), 20 nM antibody): 47%
percent growth inhibition ([3]; Capan-2 (Pancreas), 200 nM antibody): 38%
percent growth inhibition ([3]; Colo 205 (Colon), 0.2 nM antibody): 0%
percent growth inhibition ([3]; Colo 205 (Colon), 2 nM antibody): 0%
percent growth inhibition ([3]; Colo 205 (Colon), 20 nM antibody): 11%
percent growth inhibition ([3]; Colo 205 (Colon), 200 nM antibody): 28%
percent growth inhibition ([3]; HT-29 (Colon), 0.2 nM antibody): 21%
percent growth inhibition ([3]; HT-29 (Colon), 2 nM antibody): 21%
percent growth inhibition ([3]; HT-29 (Colon), 20 nM antibody): 23%
percent growth inhibition ([3]; HT-29 (Colon), 200 nM antibody): 37%
percent growth inhibition ([3]; NCI-H23 (Lung), 0.2 nM antibody): 5%
percent growth inhibition ([3]; NCI-H23 (Lung), 2 nM antibody): 12%
percent growth inhibition ([3]; NCI-H23 (Lung), 20 nM antibody): 21%
percent growth inhibition ([3]; NCI-H23 (Lung), 200 nM antibody): 47%
percent growth inhibition ([3]; Panc-1 (Pancreas), 0.2 nM antibody): 6%
percent growth inhibition ([3]; Panc-1 (Pancreas), 2 nM antibody): 11%
percent growth inhibition ([3]; Panc-1 (Pancreas), 20 nM antibody): 12%
percent growth inhibition ([3]; Panc-1 (Pancreas), 200 nM antibody): 30%
percent growth inhibition ([3]; SK-MES-1 (Lung), 0.2 nM antibody): 12%
percent growth inhibition ([3]; SK-MES-1 (Lung), 2 nM antibody): 10%
percent growth inhibition ([3]; SK-MES-1 (Lung), 20 nM antibody): 6%
percent growth inhibition ([3]; SK-MES-1 (Lung), 200 nM antibody): 7%
percent growth inhibition ([3]; SW620 (Colon), 0.2 nM antibody): 0%
percent growth inhibition ([3]; SW620 (Colon), 2 nM antibody): 4%
percent growth inhibition ([3]; SW620 (Colon), 20 nM antibody): 6%
percent growth inhibition ([3]; SW620 (Colon), 200 nM antibody): 20%
percent growth inhibition ([3]; WiDr (Colon), 0.2 nM antibody): 35%
percent growth inhibition ([3]; WiDr (Colon), 2 nM antibody): 45%
percent growth inhibition ([3]; WiDr (Colon), 20 nM antibody): 51%
percent growth inhibition ([3]; WiDr (Colon), 200 nM antibody): 57%

Each block holds one molecule with its values, some of them ahead of it.
